# Among all 310,000 compounds or so, about 2,200 (0.71%) showed an effect of 50% or more. Effects have a minus sign here. The list shows a part of the results.
# Biological target: human ether-à-go-go-related gene (hERG) potassium channel (human, UniProt Q12809)
# Assay: primary screen, population patch clamp on CHO cells stably expressing hERG
# Sequence of human ether-à-go-go-related gene (hERG) potassium channel (Q12809 whole entry, looked up): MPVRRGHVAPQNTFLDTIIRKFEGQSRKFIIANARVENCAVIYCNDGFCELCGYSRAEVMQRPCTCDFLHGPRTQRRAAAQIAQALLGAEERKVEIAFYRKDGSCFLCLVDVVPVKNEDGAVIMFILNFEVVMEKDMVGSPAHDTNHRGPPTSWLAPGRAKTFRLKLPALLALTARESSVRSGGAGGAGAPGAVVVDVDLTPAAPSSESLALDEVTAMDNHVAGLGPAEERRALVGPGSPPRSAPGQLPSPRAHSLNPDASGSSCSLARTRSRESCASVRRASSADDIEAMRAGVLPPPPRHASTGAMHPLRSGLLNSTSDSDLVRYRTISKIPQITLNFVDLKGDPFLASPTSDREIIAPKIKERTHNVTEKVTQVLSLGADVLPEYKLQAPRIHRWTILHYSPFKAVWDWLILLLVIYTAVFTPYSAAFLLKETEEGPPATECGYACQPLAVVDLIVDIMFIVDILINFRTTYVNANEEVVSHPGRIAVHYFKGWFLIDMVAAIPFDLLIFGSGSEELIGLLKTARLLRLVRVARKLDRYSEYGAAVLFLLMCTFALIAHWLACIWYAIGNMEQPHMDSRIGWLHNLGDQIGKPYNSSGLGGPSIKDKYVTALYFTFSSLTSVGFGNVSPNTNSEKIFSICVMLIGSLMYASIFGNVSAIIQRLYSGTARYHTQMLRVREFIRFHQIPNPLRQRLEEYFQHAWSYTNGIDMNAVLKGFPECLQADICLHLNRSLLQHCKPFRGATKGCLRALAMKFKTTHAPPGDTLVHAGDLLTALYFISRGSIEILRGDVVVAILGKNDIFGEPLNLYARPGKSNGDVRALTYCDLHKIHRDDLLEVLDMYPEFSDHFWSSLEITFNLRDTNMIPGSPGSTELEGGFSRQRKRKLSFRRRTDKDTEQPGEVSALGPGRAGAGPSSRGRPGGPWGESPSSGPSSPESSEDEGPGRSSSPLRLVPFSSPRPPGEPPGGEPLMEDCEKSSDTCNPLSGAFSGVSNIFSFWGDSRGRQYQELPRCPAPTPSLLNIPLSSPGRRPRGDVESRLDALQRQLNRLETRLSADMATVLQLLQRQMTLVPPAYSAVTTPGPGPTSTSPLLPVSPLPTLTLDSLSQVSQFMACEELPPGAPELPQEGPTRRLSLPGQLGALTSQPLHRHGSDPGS
row,Structure (SMILES),"hERG current change (%, negative = inhibition) at 1uM [%]"
1,COC(=O)c1ccc(NC(=S)Nc2ccc(O)cc2)cc1,5.34
2,C/C(Cl)=C\Cn1c(O)c(N=NC(N)=S)c2ccccc21,-8.32
3,CCN(CC)CCNC(=O)c1ccc(NC(=O)Cc2ccccc2F)cc1,7.05
4,N/C(=N\N=C/c1ccc(-c2ccc(O)c(C(=O)O)c2)o1)N[N+](=O)[O-],3.87
5,CCNc1oc(COc2ccccc2F)nc1C#N,15.3
6,CCC(NC(=O)NCc1cccnc1)(C(F)(F)F)C(F)(F)F,8.71
7,O=C(CCS(=O)(=O)c1ccc(Br)s1)NCc1cccs1,-0.645
8,CCOC(=O)C1=C(C)N=c2s/c(=C\c3ccc(C(=O)O)cc3)c(=O)n2C1c1ccc(F)cc1 (stereo not shown),2.3
9,CN1CC(=O)N(CC(=O)Nc2cccc(S(=O)(=O)N3CCOCC3)c2)C1=O,9.79
10,Cc1nnsc1C(=O)NC1CCCc2c1cnn2-c1ccc(C(C)(C)C)cc1 (stereo not shown),8.39
11,Cc1cc(NC(=O)CSc2nccn2-c2ccc(Cl)cc2)no1,1.63
12,COc1ccc(-n2c(=O)c3ccccc3n(CC(=O)Nc3cccc(OC)c3)c2=O)cc1,16.3
13,FC(F)(F)c1nnc2ccc(-n3ccnc3)nn12,13.3
14,CC(CNC(=O)CCCn1ncn2c(cc3occc32)c1=O)c1ccccc1 (stereo not shown),0.18
15,COCCSc1nnc(NC(=O)CCS(=O)(=O)c2ccccc2)s1,18.4
16,COc1ccccc1N(CC(O)COc1c(C)cc(C)cc1C)S(=O)(=O)c1ccccc1 (stereo not shown),5.45
17,COc1cc(OC)cc(C(=O)Nc2nnc(Cc3ccc(OC)c(OC)c3)s2)c1,20.2
18,CCc1nc(SCC(=O)Nc2ccc(F)cc2)c2c(=O)n(C)c(=O)n(C)c2n1,0.403
19,Cc1ccc(S(=O)(=O)Nc2c(C)nc3nc[nH]n3c2=O)c(C)c1,21.5
20,Cc1ccc(S(=O)(=O)Nc2cc(C(F)(F)F)ccc2N2CCOCC2)cc1C,2.71
21,COC(=O)c1ccc(Oc2ccc3nnc(C)n3n2)cc1,7.92
22,COc1cc(/C=C2\C(=O)N(CCC#N)N=C2C)c(Br)cc1OC(C)C,6.96
23,CC(C)C(CCN1C(=O)CCC1=O)C1CCOC(C)(C)C1 (stereo not shown),13.5
24,Nc1nc(Cn2nnc(-c3ccccc3Cl)n2)nc(N2CCOCC2)n1,-25.9
25,CCOc1cc(C(=O)OCC(=O)Nc2c(C)cccc2C)ccc1OCC(=O)N1CCOCC1,8.79

# Source: PMC4336329 (PLoS ONE, 2015)
